The source gives no read counts; variants with many changes may rest on few reads.
B1: LINE1-mini (parent)
chain: GGCAGAGCUCAACACAGCGUGGCAAAGUGGCUGUGGCUAGACUGCC

Variants of: B1
Experiment: self-cleavage, relative activity (ratio to wild type); higher = more cleavage; in vitro, sequencing; the parent is a self-cleaving ribozyme

Row | Variant | self-cleavage
1 | GGCAGAGCUCAACACAGCGUGGAAAAGUGGCUGUGGCUUAACUGCC [C23A A39U G40A] | 0.05
2 | GGCAGAGCUCAACACAGCGUGGCAAAUUGGCUGUGGAUAAACUGCC [G27U C37A G40A] | 0.1
3 | GGCAGAGUACAACACAGCGUGGCAAAGUGGCUGUGGCUAGACUGCA [C8U U9A C46A] | 0.16
4 | GACAGAGCUCAACACAGCGUUGCAUAGUGGAUGUGGCUAGAAUGCC [G2A G21U A25U C31A C42A] | 0.12
5 | GGCAUAGCUCAACACCGCGUGGCAAAGUGGCUGUGGUUAGUCUGCC [G5U A16C C37U A41U] | 0.02
6 | GGCAGAGCUCAACACAGCGUGGUGAAGUGGCUGUGGCUAAACUGCC [C23U A24G G40A] | 0.02
7 | CGCAGAGGUCCACACAGCGUGGCGAAGUGGCUGUGGCUACACUGCC [G1C C8G A11C A24G G40C] | 0
8 | GGCACAGUUAAACACAGCGUGGCGAAGUGGCUGUGGCUAGACUGCC [G5C C8U C10A A24G] | 0.03
9 | GGCAGAGCUAAACACAGCGUAGCUAAGUGGCUGUGGCUAGACGGCC [C10A G21A A24U U43G] | 0
10 | GGCAGAGCUUAAGACAGAGUGGCAAAGCGGCUUUGGCUAGACUGCC [C10U C13G C18A U28C G33U] | 0.02
11 | GGCAAAGCUCAACACAGCGUGGCAAAGUGGCUGUGGCUUGGCUUCC [G5A A39U A41G G44U] | 0.07
12 | GGCGGAGCUCAACACAUCGUGGCAAAGUUGCUGUGGCUAGACUGCC [A4G G17U G29U] | 0.11
13 | AGCAGAACUCAACACAGCGUGGCAAAGUGGCUGUGGCUAGAAUGCC [G1A G7A C42A] | 0.15
14 | GGUAGAGCUCAACAGAGCAUGGCAAAGUGGCUGUGGCUAGACUGCC [C3U C15G G19A] | 0.03
15 | GGCAGAGCUCAAGACGGCGAGGCAAAGUGGCUGUGGCUGGACUGCC [C13G A16G U20A A39G] | 0
16 | GGCAGAGCUCAACACAGCUUGGCAAAGUGGCGGUGGCUAGACUACC [G19U U32G G44A] | 0.03
17 | GGCAGAGCUGAACACCGCGUGGCAAAGUGGCUGUGGCUAGACUGCA [C10G A16C C46A] | 0.02
18 | GGCAGAGCGCAACACAGCGAGGCAAGGUGGCUGUGGCUAGACUGCC [U9G U20A A26G] | 0.02
19 | GGCAGAGGUCAACACAUCGUGGGAAAGUGGCUGUGGCUAGACUGCC [C8G G17U C23G] | 0.02

Row | Variant | self-cleavage
20 | GACAGCGCUUAGCAUUGCGUGGCAAAGUGGCUGUGGCUAGACUGCC [G2A A6C C10U A12G C15U A16U] | 0.03
21 | GGCAGAACCAAACACAGCGUGUCAAAGUGGAUGUGGCUAGACUGCC [G7A U9C C10A G22U C31A] | 0.01
22 | GGCAGAGCUCAAUACAGCGUGGCAAAGUGGCUGUGGCUACACUGUC [C13U G40C C45U] | 0.02
23 | GCCCGAGCUCAAAUCGGCGUGGCAAAGUGGCUGUGGCAAGACUGCG [G2C A4C C13A A14U A16G U38A C46G] | 0.02
24 | GACAGACCUCAGCACAGCGUGGCAAAGUGGCUUUGGCUAGACUGCC [G2A G7C A12G G33U] | 0.7
25 | GGCAGAGAUCAACACAGCCUGGCAAAGUGGCUGUGGCUAGAUUGCC [C8A G19C C42U] | 0.02
26 | GGCAGGGCUCAACACAGCGUGGCAAAGGGCCUGUGGGCAGACUGCA [A6G U28G G30C C37G U38C C46A] | 0.05
27 | GGCAAAGCUCAACACAGCGUGGCAUAGUGGCUCUGGCUAGACUGCC [G5A A25U G33C] | 0.13
28 | GGCAGAGCUCAAAACAGCGUGCGAAGGUGAUUGAGGCUAGACUUCC [C13A G22C C23G A26G G30A C31U U34A G44U] | 0
29 | GGCAGAGCUCAACUCAGCGUGGCAAAGUGGCUGUGGCGUGACUGCC [A14U U38G A39U] | 0.08
30 | GGCAGAGCUAAACACAGCGUCCCAAAGUGGCUGUGGCUAGACUGCC [C10A G21C G22C] | 0.01
31 | GGCAGCGCUCAACACAGCGUGGCAAAGUGGCUGAGGCUACACUGCC [A6C U34A G40C] | 0.03
32 | GGCAGAGCUCAUCACGGCGUUGCAAAGUGGCUGUGGCUAGACUGCC [A12U A16G G21U] | 0.12
33 | GUAAGAGGUCAAGACAGCGUGGCAAAGAGGCUGUGGCUAGACUGCC [G2U C3A C8G C13G U28A] | 0.05
34 | GGCAGAGAUCAACACAGCGUGGCAAACUGGCUGUGGUUAGACCGCC [C8A G27C C37U U43C] | 0.05
35 | GGCAGAGAUAAACACAGCGCGGCAAAGUGGCUGUGGCUAGACAGCC [C8A C10A U20C U43A] | 0.02
36 | GGCAAAGCUCAACACAUCGUGCCAAAGUUGAUGUGGCUAGACUGCC [G5A G17U G22C G29U C31A] | 0.09
37 | GACAGAGAGCAACACAGCUUGGCAAAGUGGCUGUGGCUAGACUGCC [G2A C8A U9G G19U] | 0.15
38 | GGCAGAGCUCAACACAGCGUGACAAAGCAGCUGUGGCUAGACUGCC [G22A U28C G29A] | 0.28

Row | Variant | self-cleavage
39 | GGCAGACCUCAACACAACGUGGCUAUGUGGCUGUGGCUAGACUGCC [G7C G17A A24U A26U] | 0.05
40 | GGCAGAUCUCAACACAGUGUGGCAAAGUGGCUGUGGCUGGACUGCC [G7U C18U A39G] | 0.03
41 | UGCAGAGCUCAACACAGCGUGGCAAGGUGGCUGUGCCUAGACUCCC [G1U A26G G36C G44C] | 0.03
42 | GGCAGAGCUCAACUCAGCGUGUCAAUGUGGCUGUGGCUAGACUGCC [A14U G22U A26U] | 0.54
43 | GGCAGAGCUCAACUCAACGUGGCAAUGUGGCUGUGGCUAGACUGCC [A14U G17A A26U] | 0.03
44 | GGCAGAGCUCGACACAGCGUGGCAAAGAGGCUGUGGCUAGAAUGCC [A11G U28A C42A] | 0
45 | GGCAGGGCUCGAGACAGCGUAGCAAAGUGGAUGUGCCUAGUCUGCC [A6G A11G C13G G21A C31A G36C A41U] | 0.02
46 | GGCAGAGCUAAACACUGCGUGGCAAAGUGGCUGUGCCUAGACUGCC [C10A A16U G36C] | 0.02
47 | GCCAGAGCUCAACACCGCGUUGCAAAGUGUCUGUGGCUAGACUGCC [G2C A16C G21U G30U] | 0.1
48 | AGGAGUGCUCAACACAGCGUGGCCAAGUGGCUGUGGUUAGACUGCC [G1A C3G A6U A24C C37U] | 1.17
49 | GGCAUAGCUCAACUCAGCGUGGCAAAUUGGCUGGGGCUAGACUGCC [G5U A14U G27U U34G] | 0.03
50 | GGCUGAGCUAAACACAGCGUGGCAAAGUAGCGGUGGCUAUACUGCC [A4U C10A G29A U32G G40U] | 0.03
51 | GGCCGAGCUCAACACAGCGUGGCAAACGGGCUGUGUAUAGACCGCC [A4C G27C U28G G36U C37A U43C] | 0.01
52 | GGCAGAGCUCAACCGACCAUGGCAAAGUGGCUGUGGCUAGACCGGC [A14C C15G G17C G19A U43C C45G] | 0.28
53 | GGAGGAGCUCAACACAGCGUGGCAAAGUGGCUACGGCUAGACUUCC [C3A A4G G33A U34C G44U] | 0.09
54 | GGCAGUGCUCAAUUCAGCGUGGCAAAGUGGCCGUGGCUAGACUUCC [A6U C13U A14U U32C G44U] | 0.19
55 | GGCAGAUCUCAACAGAGCGUGGCAAAGCGGCUGUGGCUAGACUGUC [G7U C15G U28C C45U] | 0.01
56 | GUAAGAGCUCAACACUGCGUGGCAAUGUGGCUGUGGCUAGACUGCC [G2U C3A A16U A26U] | 0.11
